PubChem BioAssay AID686971 (National Center for Advancing Translational Sciences (NCATS), 2013)
Values joined by “and” are separate entries in the source; they are usually repeats but may differ in a detail not shown here. Equal values may be shown once. Screen size: about 360,000 compounds; about 7,500 (2.1%) were called active. The inconclusive results got no clear call from the source; some entries with a clear call stand among them for comparison. The call rests on the fitted dose curve; in most records, active means well fitted cell-killing curve with a large enough effect; inconclusive means small, poorly fitted or top-dose-only effect, or effect the other way, or another doubt; inactive means no such curve, though single readings can be large or run the other way. No potency is given beside an inconclusive call; the fits are too rough.

Assay: qHTS for induction of synthetic lethality in tumor cells producing 2HG: qHTS for the HT-1080-IDH1KD cell line;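 on activity, negative = toxicity: 0% = DMSO wells and -100% = cell-free medium wells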
Settings: HT-1080 IDH1 knockdown viability, ATP luminescence, 48 h; activity, negative = toxicity: at 46.1 µM (top of the series) unless noted
Outline: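 In this qHTS, HT-1080 cells depleted of IDH1 are exposed for 48 h at 37 °C to compound titrations. Toxicity is scored from CellTiter-Glo luminescence, with DMSO as full viability and medium alone as none.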
Potency means the concentration at half of the fitted maximal effect; tags describe the fitted curve by direction and shape.

SMILES | Potency | activity, negative = toxicity
Cc1ccc(NC2=C([N+](=O)[O-])CS(=O)(=O)C2)cc1 | inconclusive [cytotoxic, single point] | 
N#Cc1ccc(OCC(=O)OCC(=O)N2CCc3ccccc32)cc1 |  | inactive: 5.85%
Cc1ccc(-n2nc3c(N4CCC(C(=O)NCCc5ccco5)CC4)nnc(C)c3c2C)cc1 | inconclusive [cytotoxic, single point] | 
CCOc1ccc(N2C(N)=NC(N)=NC2(C)C)cc1 | active: 10.3 µM | 
Cc1c(C(=O)NCc2ccc(F)cc2)sc(=O)n1Cc1ccc(Cl)c(Cl)c1 | inconclusive [cytotoxic, single point] | 
COc1ccc(Cc2nnc(NC(=O)c3ccccc3F)s2)cc1 |  | inactive: -13.5%
COc1cccc(-c2cc(=O)c3cc(NC(=O)c4ccc(N(C)C)cc4)ccc3[nH]2)c1 | active: 0.731 µM | 
Cc1nc(Cl)sc1C(=O)Nc1cc(F)cc(F)c1 | inconclusive [cytotoxic, partial curve] | 
CCOc1ncccc1C(=O)OCC(=O)NCCCc1ccccc1 |  | inactive: -4.52%
CCc1ccc(OCC(=O)NC(NC(=S)Nc2ccc(C)cc2C)C(Cl)(Cl)Cl)cc1 (configuration not stated) | inconclusive [cytotoxic, single point] | 
Cc1cccc(NC(=S)NC2CC3CCCC(C2)N3CC(C)C)c1 (configuration not stated) |  | inactive: 1.5%
CCNc1ccc(Br)cc(C(=O)/C=C/c2ccc(Cl)cc2Cl)c1=O | inconclusive [cytotoxic, partial curve] | 
COc1ccc(NC(=O)c2ocnc2C)cc1OC |  | inactive: -17%
COCOCCn1cc(CN2CCS(=O)(=O)N(Cc3ccc(-c4ccc(F)cc4)cc3)C(CC(C)C)C2=O)nn1 (configuration not stated) | inconclusive [cytotoxic, single point] | 
O=C1C=C(Nc2ccccc2C(=O)O)c2ccccc2C1=O | active: 18.4 µM | 
O=Cc1cccc(OCc2cccc3ccccc23)c1 | inconclusive [cytotoxic, single point] | 
CCOc1ccc(S(=O)(=O)NCCC(=O)NCCOc2ccccc2OC)cc1 | inconclusive [cytotoxic, single point] | 
Cc1ccc(C(NC(=O)N2CCOCC2)C(Cl)(Cl)Cl)cc1F (configuration not stated) |  | inactive: -1.82%
COc1ccc(C2C3=C(COC3=O)Oc3cc4c(cc32)OCO4)cc1OC (configuration not stated) | inconclusive [cytotoxic, full curve] | 
Cc1ccc(-c2csc(N(CCCN3CCOCC3)C(=O)c3ccco3)n2)cc1 | inconclusive [cytotoxic, single point] | 
O=C(O)c1cccc(N2C(=O)c3cc([N+](=O)[O-])cc4cc([N+](=O)[O-])cc(c34)C2=O)c1 | inconclusive [cytotoxic, single point] | 
COc1ccc(-c2nn(CC(=O)NCCc3ccccc3)c(=S)n2C)cc1 |  | inactive: -25.6%
Cc1ccc(-c2noc(COc3ccc4c(c3)OCO4)n2)cc1 |  | inactive: 14.8%
C/C(N)=C(/C#N)C(=O)COc1ncnc2ccccc12 |  | inactive: 1.52%

SMILES | Potency | activity, negative = toxicity
O=C1c2cccc3cccc(c23)C(=O)N1c1ccccc1Cl |  | inactive: -3.3%
COc1ccc(CCN2C(=O)C=CC2=O)cc1OC | active: 6.51 µM | 
CC(=O)Nc1cccc(C(=O)/C=C/c2ccc(F)cc2)c1 | active: 11.6 µM | 
COc1cc(CNc2ncnc3c2ncn3[C@H]2CN(Cc3ccco3)C[C@@H](CO)O2)cc(OC)c1OC |  | inactive: 7.68%
Cc1cc2c(cc1C)-c1c(ssc1=Nc1ccc(S(N)(=O)=O)cc1)C(C)(C)N2 | inconclusive [cytotoxic, single point] | 
C[C@@H]1[C@H]2[C@@H](O[C@@H]3O[C@H](CO)[C@@H](O)[C@H](O)[C@H]3O)OC=C(C(=O)O)[C@H]2C[C@@H]1O |  | inactive: -2.85%
O=C(NN=Cc1ccc(Cl)cc1Cl)C1CC1 |  | inconclusive: 23.9%
COc1ccccc1N(C)S(=O)(=O)c1ccc(C(=O)NNC(=O)c2ccccc2O)cc1 | inconclusive [cytotoxic, partial curve] | 
CC1(C(=O)NS(=O)(=O)C2CC2)CCCN(C(=O)c2ccccc2)C1 (configuration not stated) |  | inactive: 6.88%
O=C(NC1CCN(Cc2ccccc2)CC1)C1CCCN(c2nnc(-n3cccc3)s2)C1 (configuration not stated) |  | inactive: -0.637%
Cc1ccc(N(C)C(=O)CC(C)S(=O)(=O)c2ccc3c(c2)NC(=O)CO3)cc1 (configuration not stated) |  | inactive: 0.556%
Cn1c(-c2cccs2)[n+](C)c2ccccc21 | inconclusive [cytotoxic, single point] | 
Cc1[nH]c2ccccc2c1C(=O)COC(=O)c1c(-c2ccccc2)noc1C | active: 23.1 µM | 
CCCCCc1c(Cc2ccccc2)ncn1CCc1ccccc1OC | inconclusive [cytotoxic, single point] | 
Cc1cccc(NC(=O)c2cc3c(=O)n4ccccc4nc3s2)c1 |  | inconclusive: 31%
N#CC1=C(N)SC(N)=C(C#N)C1c1ccc([N+](=O)[O-])cc1 | inconclusive [cytotoxic, single point] | 
Cc1cccc(NC(=O)CC2Nc3cccc4cccc(c34)NC2=O)c1 (configuration not stated) | inconclusive [cytotoxic, single point] | 
CC(=O)Nc1cccc(-c2ccnc3c2CC(C(=O)NCc2ccco2)O3)c1 (configuration not stated) | active: 2.31 µM | 
COC(=O)[C@@]1(Cc2ccc(F)cc2)[C@H]2c3cc(C(=O)N4CCCC4)n(Cc4ccc(Cl)c(C(F)(F)F)c4)c3C[C@H]2CN1C(=O)c1ccccc1 | inconclusive [cytotoxic, partial curve] | 
Cc1ccc(-c2csc(NC(=O)Cc3ccc(F)cc3)n2)o1 |  | inactive: 5.85%
Cc1ccccc1Cn1c(=N)n(CC(=O)c2ccco2)c2ccccc21 | inconclusive [cytotoxic, partial curve] | 
CC(=O)c1cccc(NC(=O)c2cc(S(=O)(=O)N3CCCCC3)ccc2N2CCOCC2)c1 |  | inactive: -16.1%
O/N=C/c1cn(-c2ccccc2)nc1-c1cccnc1 |  | inactive: -1%
CCC1=C(OC(=O)N(CC)CC)N2C(=O)OC(=NCC3CC3)[C@]2(Cc2ccccc2)[C@H]2C1=CC[C@H]1C(=O)N(CC)C(=O)[C@H]12 | inconclusive [cytotoxic, single point] | 

SMILES | Potency | activity, negative = toxicity
O=C(NC(NC(=S)Nc1cc(Cl)ccc1Cl)C(Cl)(Cl)Cl)c1ccco1 (configuration not stated) | inconclusive [cytotoxic, single point] | 
CCN(c1ccccc1)S(=O)(=O)c1ccc(Cl)c(NC(=O)CSc2nc(N)cc(=O)[nH]2)c1 |  | inactive: -8.59%
O=C(NC(=S)Nc1ccc(Br)cn1)c1cccs1 |  | inactive: -3.37%
NC(=O)c1cc(-c2ccccc2)nc(N2CCOCC2)n1 | inconclusive [cytotoxic, partial curve, poor fit] | 
C[C@@H](NC(=O)[C@@H]1CCCN1C(=O)[C@@H]1CCCN1)c1ccccc1 |  | inactive: 5.24%
COc1cc(/C=N/NC(=O)NC23CC4CC(CC(C4)C2)C3)ccc1O | inconclusive [cytotoxic, single point] | 
N#C/C(=C\c1ccncc1)c1ccccn1 | inconclusive [cytotoxic, partial curve] | 
N#CC(=C1C=CC(=NO)C(Cl)=C1)c1ccccc1 | active: 5.8 µM | 
COc1ccc(-c2ccc(C(=O)Nc3ccc(Cl)cc3)c3occc23)c(C)c1 | inconclusive [cytotoxic, full curve, poor fit] | 
O=C1c2cccc3c([N+](=O)[O-])ccc(c23)C(=O)N1c1ccccn1 | inconclusive [cytotoxic, single point] | 
CCCN1CN(c2ccccc2)C(=S)N(c2ccccc2)C1 |  | inactive: 11.6%
CCc1ccc(CN(C)C(=O)CCc2nc3ccccc3n(-c3ccc(OC)cc3)c2=O)cc1 | active: 14.6 µM | 
OC(c1cc(Cl)cc(Cl)c1)c1ncc(-c2ccccc2F)[nH]1 (configuration not stated) | inconclusive [cytotoxic, single point] | 
Cc1cc(C)nc(N/N=C/C2=C(O)CC(c3ccc(F)cc3)CC2=O)n1 (configuration not stated) | inconclusive [cytotoxic, single point] | 
COc1cc(-c2nc3c[n+](CC(=O)c4ccccc4)ccc3n2C)cc(OC)c1OC |  | inactive: 23.1%
CCOC(=O)c1c(-c2ccccc2)oc2ccc(O)c(CN(C)C)c12 | inconclusive [cytotoxic, single point] | 
CCN(CC)CCC(c1ccc2c(c1)OCO2)c1c(O)cc(OC)cc1OC (configuration not stated) |  | inactive: -14.7%
CCN1C/C(=C/c2ccc(OC)c(O)c2)C(=O)/C(=C/c2ccc(OC)c(O)c2)C1 | inconclusive [cytotoxic, single point] | 
CCN1CCN(Cc2ccc(NC(=O)c3ccc(C)c(NC(=O)C(=O)c4c[nH]c5ccccc45)c3)cc2C(F)(F)F)CC1 | active: 18.4 µM and active: 20.6 µM and active: 14.6 µM | 
CCN(CC)S(=O)(=O)c1cc(NC(=O)Cc2ccc(S(=O)(=O)N3CCOCC3)s2)ccc1Cl | inconclusive [cytotoxic, single point] | 
COc1cc(NC(=O)Nc2cccc(Cl)c2)c(OC)cc1NC(=O)CN1CCCCC1 | active: 20.6 µM | 
Cc1nnc2ccc(-c3cccc(NS(=O)(=O)c4ccccc4[N+](=O)[O-])c3)nn12 | inconclusive [cytotoxic, full curve, poor fit] | 
COc1ccc(N2CCN(C(=O)CSc3nnc(-c4cc5ccccc5cc4O)n3C)CC2)cc1 | inconclusive [cytotoxic, single point] | 
COc1cc(C(=O)OCC(=O)NC2CCCC2)cc(OC)c1OC |  | inactive: -5.48%
